{"source": "patent US20140235520A1", "about": "“Perfume Compositions” (Givaudan Nederland Services B.V., priority 2005, published 2014)", "tested_on": "Escherichia coli ATCC 10536", "experiment": "Standardised biofilm detachment assay (96 well microtitre plate, crystal violet OD540) in quarter strength GPC base Formula A", "set-up": "key: D indicates that the material is not yet identified, but is tentatively allocated to group A or B", "conditions": "ingredient of Example 4 composition, not yet identified", "from_the_text": "In particular, a standardised biofilm detachment assay was used to quantify perfume ingredients in biofilm removal in terms of percent detachment values (PDVs). The standardised biofilm detachment assay is based on testing perfume compositions of 4 perfume ingredients present in equal amounts by weight, comprising 3 ingredients that fall in Group B and are non-active with regard to biofilm detachment (3,7-dimethyloct-6-en-1-ol; 1-ethenyl-1,5-dimethylhex-4-enyl acetate; and phenylmethyl-2-hydroxybenzoate) in admixture of a perfume ingredient under test. Each 4 component perfume mixture was used at a concentration of 0.25% w/w in a quarter strength general purpose cleaner (GPC) base test mixture having the composition of Formula A as set out in Example 1(a) below. […] PDVs for the perfume ingredients obtained in this way were rounded to the nearest integer. References in this specification to percent detachment value or PDV of a material means a value obtained using this standardised biofilm detachment assay, as defined above. […]\nThe crystal violet was quantified by measuring the optical density at 540 nm (OD540) of each well using a plate reader (model MRX, Dynatech laboratories, Chantilly, Va., USA). A percentage detachment value (PDV) for each test mixture was then calculated using the following formula: […]", "data": [{"smiles": "CCCCCCC1=CCCC1=O", "note": "[2-hexylcyclopent-2-en-1-one]", "values": [{"measurement": "Group (tentative)", "value": "D"}]}]}
